According to PubChem BioAssay AID504339 (National Center for Advancing Translational Sciences (NCATS), 2011):
Values joined by “and” are separate entries in the source; they are usually repeats but may differ in a detail not shown here. Equal entries are not always repeated. About 17,000 (4.4%) of roughly 390,000 compounds were called active. The shares of active, inactive and inconclusive entries below differ from those in the screen. Calls come from the whole dose curve; as a rule, active = well fitted inhibition curve with a large enough effect; inconclusive = small, poorly fitted or top-dose-only effect; inactive = no such curve, though single readings can be large or run the other way. Where the call is inconclusive, the potency comes from a doubtful curve fit.

biological target: Lysine-specific demethylase 4A (Homo sapiens) (UniProt O75164); assay: qHTS Assay for Inhibitors of JMJD2A-Tudor Domain; conditions: AlphaScreen JMJD2A-Tudor / H3K4me3 peptide binding; activity change, negative = inhibition: at 114 µM (top of the series); note: nearly all actives have a fitted effect of over 50% in size
Chain of UniProt O75164 (O75164 whole entry, looked up, the tested form may be a part): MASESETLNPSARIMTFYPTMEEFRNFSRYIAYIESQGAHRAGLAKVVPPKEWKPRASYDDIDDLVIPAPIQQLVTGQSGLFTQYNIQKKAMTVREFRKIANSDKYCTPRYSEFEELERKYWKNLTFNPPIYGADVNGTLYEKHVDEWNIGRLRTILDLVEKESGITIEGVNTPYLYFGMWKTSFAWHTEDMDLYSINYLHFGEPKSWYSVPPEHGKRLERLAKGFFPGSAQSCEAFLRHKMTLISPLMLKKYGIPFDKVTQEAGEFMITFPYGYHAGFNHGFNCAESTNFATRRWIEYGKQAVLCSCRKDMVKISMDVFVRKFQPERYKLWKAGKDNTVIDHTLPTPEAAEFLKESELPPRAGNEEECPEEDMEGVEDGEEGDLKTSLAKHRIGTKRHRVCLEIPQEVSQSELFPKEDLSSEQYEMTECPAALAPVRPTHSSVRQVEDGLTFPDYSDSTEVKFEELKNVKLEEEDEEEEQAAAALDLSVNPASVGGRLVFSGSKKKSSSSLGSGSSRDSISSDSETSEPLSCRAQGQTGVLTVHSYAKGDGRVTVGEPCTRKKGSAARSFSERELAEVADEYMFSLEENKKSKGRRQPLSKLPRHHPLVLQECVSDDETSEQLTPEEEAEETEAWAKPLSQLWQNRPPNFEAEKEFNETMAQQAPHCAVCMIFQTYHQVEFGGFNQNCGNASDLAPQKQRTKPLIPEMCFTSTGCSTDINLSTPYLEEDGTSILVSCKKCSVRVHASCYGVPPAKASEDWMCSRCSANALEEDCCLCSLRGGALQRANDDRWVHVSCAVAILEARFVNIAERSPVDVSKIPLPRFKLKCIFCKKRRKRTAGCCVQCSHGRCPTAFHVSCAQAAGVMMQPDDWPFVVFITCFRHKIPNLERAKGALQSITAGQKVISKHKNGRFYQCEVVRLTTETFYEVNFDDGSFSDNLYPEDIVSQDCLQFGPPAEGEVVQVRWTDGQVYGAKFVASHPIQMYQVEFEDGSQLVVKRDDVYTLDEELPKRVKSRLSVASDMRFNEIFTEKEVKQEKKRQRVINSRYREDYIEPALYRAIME
% is set by controls: 0 for no effect and ±100 for the full control effect; potency is the fitted concentration of half-maximal effect; tags give direction and shape of the fitted curve.

Structure (SMILES) | Potency | activity change, negative = inhibition
Cc1ccc(S(=O)(=O)CC(CN2CCCCC2)N2CCCCC2)cc1 (stereo unspecified) | inconclusive: 39.8 µM [inhibitor, partial curve] | –
O=C(/C=C/c1cn(-c2ccccc2)nc1-c1cccnc1)c1ccco1 | inconclusive: 89.1 µM [inhibitor, partial curve] | –
CCc1nc(N2CCN(C(C)=O)CC2)c2c3c(sc2n1)CC(C(C)(C)C)CC3 (stereo unspecified) | inconclusive: 50.1 µM [inhibitor, partial curve] | –
C#CCOCCOCCOCCNc1nc(N2CCN(C(=O)C([C@@H](C)CC)n3cc(C(N)COC(=O)C(F)(F)F)nn3)CC2)nc(N2CCN(C(=O)[C@H](Cc3ccc(O)cc3)n3cc(C(N)[C@H](C)CC)nn3)CC2)n1 (stereo partly specified) | inconclusive: 79.4 µM [inhibitor, partial curve] | –
CNc1ccc(/C=C/C(=O)c2ccc3c(c2)OCCO3)cc1[N+](=O)[O-] | inconclusive: 8.91 µM [inhibitor, partial curve] | –
NS(=O)(=O)c1cc(C(=O)Nc2ccc3c(c2)CCC3)ccc1Cl | inconclusive: 35.5 µM [inhibitor, partial curve] | –
CCc1ccc(NC(=O)C(NS(=O)(=O)c2cccc3nsnc23)c2ccccc2)cc1 (stereo unspecified) | inconclusive: 31.6 µM [inhibitor, partial curve] and inconclusive: 28.2 µM [inhibitor, full curve, poor fit] | –
[O-]/C(=C(\C(=S)Nc1ccc(SC(F)F)cc1)[n+]1ccccc1)c1cc(Cl)ccc1Cl | inconclusive: 25.1 µM [inhibitor, full curve] | –
COc1ccc(OCCN(C)Cc2c(O)ccc3ccccc23)cc1 | inconclusive: 31.6 µM [inhibitor, full curve, poor fit] | –
CCN(CC)CCCOc1nc(C)nc2c1oc1ccccc12 | inactive | –
CC1CN(C(=O)COC(=O)CSc2ccc([N+](=O)[O-])cc2)CC(C)O1 (stereo unspecified) | inactive | –
Oc1ccc(/C=N/N2CCN(C3c4ccccc4-c4ccccc43)CC2)cc1O | active: 39.8 µM | –
COc1cccc(OC)c1OCCOc1ccccc1OC(C)C | inactive | –
CCC1CCCCN1C(=O)Nc1cc(Cl)ccc1OC (stereo unspecified) | inactive | –
CCOc1ccccc1N(C)S(=O)(=O)c1ccc2c(c1)CCN2C(=O)CCC(=O)O | inactive | –
CCn1c(SCC(=O)N2c3ccccc3Sc3ccccc32)nnc1-c1ccco1 | inconclusive: 56.2 µM [inhibitor, partial curve] | –
CCCCCCCC[n+]1cccc(C(=O)N2c3c(nc(N)[nH]c3=O)NC(C)C2C)c1 (stereo unspecified) | inconclusive: 35.5 µM [inhibitor, partial curve] | –
O=C(O)CC/C(=C\c1cccc(NC(=O)c2ccccc2Cl)c1)c1nc2ccccc2s1 | inactive | –
CCCCn1c(N)c(N(CC(C)C)C(=O)CSc2nn(-c3ccc(F)cc3)c(=S)s2)c(=O)[nH]c1=O | inactive | –
CCN(CC(=O)NC(=O)NC1CCCC1)Cc1ccccc1 | inactive | –
COc1ccc(-n2c(Cc3cccn3C)nnc2SCC(=O)NCC2CCCO2)cc1 (stereo unspecified) | inactive | –
CCOc1ncccc1C(=O)OCC(=O)c1cc(C)n(Cc2ccco2)c1C | inconclusive: 44.7 µM [inhibitor, partial curve] | –
CCOc1ccc(C2C(C(=O)c3ccco3)=C(O)C(=O)N2CCCn2ccnc2)cc1 (stereo unspecified) | active: 44.7 µM | –
Cc1ccc(NC(=O)CSc2ccc(-c3ccco3)nn2)c(C)c1 | inactive | –

Structure (SMILES) | Potency | activity change, negative = inhibition
O/N=C/CCn1c(=S)sc2ccccc21 | inactive | –
Cc1cc(C(=O)N/N=C/c2c(CO)cnc(C)c2O)c2ccccc2n1 | active: 50.1 µM | –
COC(=O)c1cc2oc(C)cc2n1CC(=O)N1CCCc2ccccc21 | inconclusive: 56.2 µM [inhibitor, partial curve] | –
O=C(CSc1nnc(COc2ccccc2)n1Cc1ccco1)c1ccc(F)cc1 | active: 79.4 µM | –
CC1(C)CC2CC(C)(CN2C(=O)COC(=O)c2cccc([N+](=O)[O-])c2)C1 (stereo unspecified) | inactive | –
c1ccc(CNc2ccc(N3CCOCC3)cc2)cc1 | active: 44.7 µM | –
COc1ccc(S(=O)(=O)N2CCOC2CNC(=O)C(=O)NCCCN2CCOCC2)cc1 (stereo unspecified) | inactive | –
S=C(Nc1ccc(Cl)c(Cl)c1)NC1CCN(Cc2ccccc2)CC1 | inconclusive: 70.8 µM [inhibitor, single point] | –
Cc1ccccc1N1CCN(Cc2c[nH]c3ccccc23)CC1 | active: 5.01 µM | –
COC(=O)CCNC(=O)NC(CCC(C)C)c1c(-n2cccc2)sc2c1CCN(C)C2 (stereo unspecified) | inactive | –
COc1ccc(-c2n[nH]c(=S)n2-c2cc(OC)ccc2OC)cc1 | active: 10 µM | –
NC(=O)CC(NC(=O)c1ccc(Br)cc1)c1ccc(N2CCCCCC2)c([N+](=O)[O-])c1 (stereo unspecified) | inconclusive: 35.5 µM [inhibitor, full curve] | –
CC1(C)CC(=O)C(C=Nc2ccncc2)=C(O)C1 | inconclusive: 63.1 µM [inhibitor, partial curve] | –
CC(=O)OCC1OC(n2c(S)c(C#N)c(-c3ccccc3)c(C#N)c2=O)C(OC(C)=O)C(OC(C)=O)C1OC(C)=O (stereo unspecified) | inactive | –
CCN1CCN(c2ccc(NC(=O)c3ccc4c(c3)[nH]c(=O)n4Cc3ccc(OC)cc3)cc2)CC1 | inconclusive: 11.2 µM [inhibitor, full curve] | –
O=C(NCCNCc1cccs1)c1ccccc1F | active: 3.55 µM | –
Cc1ccc(NC(=O)c2cc([N+](=O)[O-])ccc2NCc2cccnc2)cc1 | inconclusive: 28.2 µM [inhibitor, full curve] | –
CCN(CC)S(=O)(=O)c1ccc(C)c(NC(=O)COc2ccc3c(C)cc(=O)oc3c2)c1 | inactive | –
CCc1ccccc1OCCOc1ccc(C)cc1OC | – | inactive: -26.7% [at 11.4 µM]
O=C(CNS(=O)(=O)c1ccccc1)NCC(=O)OCc1ccc(Br)cc1 | inconclusive: 12.6 µM [inhibitor, full curve] | –
CC1=C(c2ccc(C(C)C)cc2)S(=O)(=O)NC1=NCCCN1CCN(c2ccccc2F)CC1 | inactive | –
Cc1ccc(CN2CCc3nc(Nc4ccc5c(c4)OCCO5)ncc3C2)cc1 | active: 44.7 µM | –
C=CCn1c(SCC(=O)c2ccc(O)c(O)c2)nnc1-c1cccc(Cl)c1 | inconclusive: 15.8 µM [inhibitor, full curve] | –
CSc1ccc(NC(N)=S)cc1 | inactive | –

Structure (SMILES) | Potency | activity change, negative = inhibition
CCCCNC1(C#N)CCN(Cc2ccccc2)CC1 | inconclusive: 35.5 µM [inhibitor, single point] | –
O=C(CCN1C(=O)/C(=C/c2ccccc2F)SC1=S)Nc1cccnc1 | inconclusive: 15.8 µM [inhibitor, partial curve] | –
Cc1cccc(N/N=C/c2ccc(O)c(O)c2O)c1 | active: 44.7 µM | –
CSS(=O)(=O)c1cccc2cccnc12 | active: 3.16 µM | –
Cn1c(=O)c2c(nc(Br)n2Cc2nnc(N)s2)n(C)c1=O | inconclusive: 89.1 µM [inhibitor, single point] | –
NNC(=O)c1nc[nH]c1C(=O)Nc1ccccc1 | inconclusive: 3.55 µM [inhibitor, single point] | –
CCOc1ccc(NC(=O)CN2CCN(CC(=O)c3ccc(OCC)cc3)CC2)cc1 | inconclusive: 25.1 µM [inhibitor, single point] | –
O=C(NCCCN1CCN(c2ccc(F)cc2)CC1)c1cnn(-c2ccc(F)cc2)c1-n1cccc1 | inconclusive: 79.4 µM [inhibitor, partial curve] | –
COc1ccc(NC(=O)c2ccc3c(SCC(=O)O)c4c(nc3c2)CCCC4)c(OC)c1 | inconclusive: 70.8 µM [inhibitor, single point] and inconclusive: 39.8 µM [inhibitor, full curve, poor fit] | –
COC(=O)Oc1nsnc1N1CCOCC1 | active: 89.1 µM | –
COc1ccc(N[C@@H]2CCN3C(=O)c4ccccc4[C@@H]3C[C@H]2O)cc1 | inconclusive: 56.2 µM [inhibitor, partial curve, poor fit] | –
COc1ccc(CN2CCN(S(=O)(=O)c3ccc(C)cc3)CC2)cc1OC | active: 50.1 µM | –
O=C(NCCCn1ccnc1)C(=O)NCC1OCCN1S(=O)(=O)c1cc(F)ccc1F (stereo unspecified) | active: 39.8 µM | –
Cc1ccc(N=Cc2cc(Cc3ccccc3Cl)cc([N+](=O)[O-])c2O)c(O)c1 | active: 14.1 µM | –
COc1cccc(CN2CCN(C(=O)c3ccco3)CC2)c1OC | active: 5.62 µM | –
COc1cccc(/C=C/C(=O)c2ccc(NC3=NCCCS3)cc2)c1 | inconclusive: 50.1 µM [inhibitor, partial curve] | –
O=c1[nH]c2ccccc2nc1CCc1ccccc1 | inactive | –
Cn1cccc1/C=C1\SC(=Nc2ccccc2)NC1=O | inconclusive: 50.1 µM [inhibitor, partial curve] | –
COc1ccc(OC)c(C2C(C(C)=O)=C(O)C(=O)N2c2ccc(F)cc2)c1 (stereo unspecified) | inconclusive: 31.6 µM [inhibitor, partial curve] | –
CCCCOc1ccc(C2OC34CCCCC3C(C#N)(C#N)C2(C#N)C(=N)O4)cc1 (stereo unspecified) | inconclusive: 28.2 µM [inhibitor, partial curve] | –
O=C(NCCS(=O)(=O)N1CCN(c2ccccc2F)CC1)c1ccc(Br)o1 | inconclusive: 22.4 µM [inhibitor, full curve] | –
COc1ccc(-n2c(CN3CCN(c4ccc(F)cc4)CC3)nc3ccc([N+](=O)[O-])cc3c2=O)c(OC)c1 | inconclusive: 22.4 µM [inhibitor, full curve] | –
COc1ccc(-c2cnc(SCCNC(=O)c3ccc4c(c3)OCO4)[nH]2)cc1 | inconclusive: 79.4 µM [inhibitor, partial curve] | –
